Experimental data published in publication PMC12040169 (PLOS Biology, 2025).
This is one part of the list.

What follows are compounds tested on T1, C. trachomatis L2/434/Bu expressing GFP (CTL2-GFP). Details: total inclusion area; 28.5 h, 10 µM; inhibitor.
T1 construct: L2/434/Bu GFP intracellular growth in HeLa cells
Design: species or system HeLa; C. trachomatis total inclusion area by high-content imaging, normalised to DMSO
Outline: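 High-content imaging followed the bulk GFP/resorufin measurement: fixed, Hoechst-stained cells were scored for GFP inclusions and host nuclei per well. Total inclusion area and count served as growth proxies, nuclei number as the viability proxy. MIC calculation matched the bulk assay.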
CS(=O)(=O)Nc1ccc(C2=NN(S(C)(=O)=O)C(c3ccc4nccnc4c3)C2)cc1 (stereo not drawn) [CBK267546] was tested, and the “% of control remaining” value was 81.5353. For COc1cccc(C(=O)N2Cc3ccccc3CC2C(=O)O)c1 (stereo not drawn) [CBK287150], the “% of control remaining” value was 119.714. In the case of Cn1c2c(c(=O)n(C)c1=O)[C@@H]1C(C[C@](O)(COCc3ccccc3)[C@H]1O)C1(CCC1)N2 (stereo partly drawn) [CBK303265], the “% of control remaining” value is reported as 115.015. With O=S(=O)(O)c1ccc(N/N=C/c2cccc(/C=N/Nc3ccc(S(=O)(=O)O)cc3)c2)cc1 [CBK278204N] the “% of control remaining” value was 96.222. In the case of O=C1/C(=C2/Sc3ccccc3N2CCCS(=O)(=O)O)SC(=S)N1c1ccccc1 [CBK260954G], the “% of control remaining” value is reported as 96.0089. In the case of O=C(Oc1ccc(N(C(=O)c2ccncc2)S(=O)(=O)c2cccc3cccnc23)cc1)c1ccncc1 [CBK267123], the “% of control remaining” value is reported as 115.549. In the case of Cc1onc(-c2ccccc2)c1NC(=O)Nc1cc2ccccc2c(Br)n1 [CBK105489], the “% of control remaining” value is reported as 100.986. For COc1ccc(Cl)cc1S(=O)(=O)N1CCC(C(N)=O)(N2CCCCC2)CC1 [CBK269571], the “% of control remaining” value was 93.1649. In the case of O=C(Cc1nn[nH]n1)Nc1ccc(F)c(Cl)c1 [CBK006384], the “% of control remaining” value is reported as 99.9893. With CC(C)[C@H](CO)Nc1nccnc1-c1ccccc1F [CBK037987] the “% of control remaining” value was 83.7271. CCNC(=O)N[C@H]1C[C@@H](Cc2cc(CN(C)C)on2)C1(C)C [CBK289310] was tested, and the “% of control remaining” value was 121.361. In the case of CSCC(O)Cn1nc(O)cc(C)c1=O (stereo not drawn) [CBK006293], the “% of control remaining” value is reported as 62.9163. COc1ccc(C)cc1S(=O)(=O)n1ccc2c(CNC3CCN(C)CC3)cccc21 [CBK113308T] was tested, and the “% of control remaining” value was 69.4588. For O=C(c1cccc(NS(=O)(=O)Cc2ccccc2)c1)N1CCOCC1 [CBK038991], the “% of control remaining” value was 80.598. For CCOc1ncccc1NC(=O)N(CC1CCOC1)C1CC1 (stereo not drawn) [CBK305077], the “% of control remaining” value was 75.054. With CCOC(=O)c1c(NC(=O)CNCc2cccnc2)sc2c1CCCC2 [CBK304577] the “% of control remaining” value was 55.6581. For Cc1nc(-c2cccnc2)[nH]c(=O)c1CC(=O)N1CCSCC1 [CBK305944], the “% of control remaining” value was 26.7573. N#Cc1cccc(NC(=O)CN2CCN(C(=O)C3COc4ccccc4O3)CC2)c1 (stereo not drawn) [CBK074779] was tested, and the “% of control remaining” value was 97.5419. With CCCCN(C=O)c1c(CC)nc2ccc(C(=O)NCC3CCCCC3)cn12 [CBK145708] the “% of control remaining” value was 101.982. With COC(=O)c1cc(C#N)c(=O)n(CC(=O)Nc2ccc(OC)c(OC)c2)c1 [CBK297926] the “% of control remaining” value was 93.5441. For CN(C)CCO/N=C1\CC2(CCCC2)c2ccc(Cl)cc21 [CBK013334], the “% of control remaining” value was 52.9994.
